# In article PMC12136788:
# This is one part of the list.
# T1: UNK ZnF1-3 (human, UniProt Q9C0B0 31-174)
# T1 sequence: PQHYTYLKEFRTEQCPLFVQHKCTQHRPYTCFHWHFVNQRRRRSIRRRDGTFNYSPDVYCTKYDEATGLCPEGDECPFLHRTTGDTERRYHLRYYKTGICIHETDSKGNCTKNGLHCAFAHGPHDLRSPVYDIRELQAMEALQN
# B1: chr20:21312971:21312972:+_ENSG00000088930_ENST00000377191|hu_mus|FALSE|FALSE (ssRNA)
# RNA: GGGAGUUCUACAGUCCGACGAUCUCCAAACUGAUUACAAAGAGCACAUGGUUUAGGUUUAUUUGGUUUGAAUUCUUCUCUGAUUAUGGUGAAGUUAGGUUCAUGUGUAGCAAGACCAAGCAUAAUUAGAUCAGCAUCAGCUCCCAACAGAGGAUUGAGCAUCA
# B2: chr7:150253694:150253695:+_ENSMUSG00000037706_ENSMUST00000037941|mus_mus|FALSE|FALSE (ssRNA)
# RNA: GGGAGUUCUACAGUCCGACGAUCAAGUGCAUUGAAGGCAUAAGAGGGCUUACAAACCCAGCUCUUGAAAUGGAGGCAGGAAAGGAACAAAGAUUAAAAAGAUGUGAGCAAUGUGACCCACAGUGGGUUGAGUGGGUGGGCAUGCAACAGAGGAUUGAGCAUCA
# B3: 89843522_89849957_2958_CDS_ENSMUSG00000002489_ENSMUST00000163370|mouse|control|control (ssRNA)
# RNA: GGGAGUUCUACAGUCCGACGAUCCUUCUCAAUGUGGAUAUUCUGGGUGACUUUUGGACAGAUUUCAAUUUCUUUGUAAAGCAGCUCGUAAAUGUCCUCCUCGGGCUGCGGGAUGUAGAACUGCACUCUGUUCUCCAUUAGGAACAACAGAGGAUUGAGCAUCA
# B4: chr12:105536279:105536280:+_ENSG00000136051_ENST00000332180|hu_mus|hu_hu_hu_mus_True|8_78 (ssRNA)
# RNA: GGGAGUUCUACAGUCCGACGAUCAGCACUGAACAUGUAAUGUAAUCUGGCUGCAUCAACAGCAUUUUCAUAUACAUCAUCUAAAUAAAUCGGGAAGACAGCGCGAUGCCAGUAUAAAAAACAGCAGUCACAUUGUGCUUGGACCAACAGAGGAUUGAGCAUCA
# B5: chr12:25741899:25741900:+_ENSMUSG00000036333_ENSMUST00000066652|mus_mus|FALSE|FALSE (ssRNA)
# RNA: GGGAGUUCUACAGUCCGACGAUCCAAGUCUGUCUGGAAGAGACUAGGCCGUUCUGAAGACUUCUUGCCUGGGAGCAGCUUACUACCUGACUGGUCGGAUUUCUCAUCUUCCUCAGUAAUGGGGUCCAGGGGUGAGGCCUCAUUCAACAGAGGAUUGAGCAUCA
# B6: chr7:72441615:72441616:-_ENSMUSG00000030516_ENSMUST00000102592|mus_mus|FALSE|FALSE (ssRNA)
# RNA: GGGAGUUCUACAGUCCGACGAUCUCAAACAUCUCAGAUGCACAGCCCAAAGAACAGAAGACUGCCACUCCCCCUGUCAAAAAAAUAUUUUAAGUCACACCAUUAUUUUCUUCCAGGUAAUUUGCACAUUUCUGAAACCAUCAACAACAGAGGAUUGAGCAUCA
# Molecular target: T1, UNK ZnF1-3
# Test: nsRBNS (natural sequence RNA bind-n-seq); RBNS binding buffer (assumed for nsRBNS): 25 mM Tris pH 7.5, 150 mM KCl, 3 mM MgCl2, 0.01% Triton X-100, 500 ug/ml BSA, 20 U/ml SUPERase-In, 4 C; UNK is unkempt and MSI1 is Musashi-1; names of the RNAs are library labels; protein concentration not given here; high values mean tight binding
row,Binder,binding signal [enrichment R]
1,B1,1.26
2,B2,2.15
3,B3,0.833
4,B4,3.28
5,B5,0.603
6,B6,2.78
